# In the supplement of paper PMC8728848:
# The list shows a part of the results.
# B1: LecB PA7 (Pseudomonas aeruginosa) (protein)
# chain: MATQGVFTLPANTRFGVTAFANSSATQTVKVLVNNETAATFTGQSTNNAVIGSQVLNSGGGGKVQIQVSVNGRSSDLVSAQVILANELNVALVGSEDSTDNDYNDAVVVINWPLG
# Experiments:
# Experiment in all cases: glycan array binding signal (z-score within array); higher = stronger binding
# Conditions in all cases: glycan notation: IUPAC condensed, linker removed
# [1] = molecular target: Neu5Ac(a2-3)Gal(b1-3)GlcNAc6S
# Outline: (§1)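 Arrays were curated from the Consortium for Functional Glycomics database, 3228 in total, and kept only where the protein sequence was available. Binding is expressed as a within-array Z-score. This score was averaged across arrays of the same protein sequence at different concentrations or buffers and across linkers, and negative values can be read as non-binding.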
# [2] = molecular target: Neu5Ac(a2-3)Gal(b1-3)[Fuc(a1-4)]GlcNAc
# Outline: as §1
# [3] = molecular target: Neu5Ac(a2-3)Gal(b1-3)[Fuc(a1-4)]GlcNAc(b1-3)Gal(b1-3)[Fuc(a1-4)]GlcNAc
# Outline: as §1
# [4] = molecular target: Neu5Ac(a2-3)Gal(b1-3)[Fuc(a1-4)]GlcNAc(b1-3)Gal(b1-4)[Fuc(a1-3)]GlcNAc
# Outline: as §1
# [5] = molecular target: Neu5Ac(a2-3)Gal(b1-3)[GlcNAc(b1-6)]GalNAc
# Outline: as §1
# [6] = molecular target: Neu5Ac(a2-3)Gal(b1-3)[Neu5Ac(a2-6)]GalNAc
# Outline: as §1
# [7] = molecular target: Neu5Ac(a2-3)Gal(b1-3)[Neu5Ac(a2-6)]GlcNAc(b1-3)[Fuc(a1-3)[Gal(b1-4)]GlcNAc(b1-6)]Gal(b1-4)Glc
# Outline: as §1
# [8] = molecular target: Neu5Ac(a2-3)Gal(b1-3)]Neu5Ac(a2-3)Gal(b1-4)]GlcNAc
# Outline: as §1
# [9] = molecular target: Neu5Ac(a2-3)Gal(b1-4)Glc
# Outline: as §1
# [10] = molecular target: Neu5Ac(a2-3)Gal(b1-4)GlcNAc
# Outline: as §1
# [11] = molecular target: Neu5Ac(a2-3)Gal(b1-4)GlcNAc(b1-2)Man
# Outline: as §1
# [12] = molecular target: Neu5Ac(a2-3)Gal(b1-4)GlcNAc(b1-2)Man(a1-3)[GlcNAc(b1-4)][Neu5Ac(a2-3)Gal(b1-4)GlcNAc(b1-2)Man(a1-6)]Man(b1-4)GlcNAc(b1-4)GlcNAc
# Outline: as §1
# [13] = molecular target: Neu5Ac(a2-3)Gal(b1-4)GlcNAc(b1-2)Man(a1-3)[Neu5Ac(a2-3)Gal(b1-4)GlcNAc(b1-2)Man(a1-6)]Man(b1-4)GlcNAc(b1-4)GlcNAc
# Outline: as §1
# [14] = molecular target: Neu5Ac(a2-3)Gal(b1-4)GlcNAc(b1-2)Man(a1-3)[Neu5Ac(a2-3)Gal(b1-4)GlcNAc(b1-2)Man(a1-6)]Man(b1-4)GlcNAc(b1-4)[Fuc(a1-6)]GlcNAc
# Outline: as §1
# [15] = molecular target: Neu5Ac(a2-3)Gal(b1-4)GlcNAc(b1-2)Man(a1-3)[Neu5Ac(a2-6)Gal(b1-4)GlcNAc(b1-2)Man(a1-6)]Man(b1-4)GlcNAc(b1-4)GlcNAc
# Outline: as §1
# [16] = molecular target: Neu5Ac(a2-3)Gal(b1-4)GlcNAc(b1-2)[Neu5Ac(a2-3)Gal(b1-4)GlcNAc(b1-4)]Man(a1-3)[GlcNAc(b1-4)][Neu5Ac(a2-3)Gal(b1-4)GlcNAc(b1-2)[Neu5Ac(a2-3)Gal(b1-4)GlcNAc(b1-6)]Man(a1-6)]Man(b1-4)GlcNAc(b1-4)GlcNAc
# Outline: as §1
# [17] = molecular target: Neu5Ac(a2-3)Gal(b1-4)GlcNAc(b1-2)[Neu5Ac(a2-3)Gal(b1-4)GlcNAc(b1-4)]Man(a1-3)[GlcNAc(b1-4)][Neu5Ac(a2-3)Gal(b1-4)GlcNAc(b1-4)Man(a1-6)]Man(b1-4)GlcNAc(b1-4)GlcNAc
# Outline: as §1
# [18] = molecular target: Neu5Ac(a2-3)Gal(b1-4)GlcNAc(b1-2)[Neu5Ac(a2-3)Gal(b1-4)GlcNAc(b1-6)]Man(a1-6)[Neu5Ac(a2-3)Gal(b1-4)GlcNAc(b1-2)Man(a1-3)][GlcNAc(b1-4)]Man(b1-4)GlcNAc(b1-4)GlcNAc
# Outline: as §1
# [19] = molecular target: Neu5Ac(a2-3)Gal(b1-4)GlcNAc(b1-3)Gal
# Outline: as §1
# [20] = molecular target: Neu5Ac(a2-3)Gal(b1-4)GlcNAc(b1-3)Gal(b1-3)GlcNAc
# Outline: as §1
# [21] = molecular target: Neu5Ac(a2-3)Gal(b1-4)GlcNAc(b1-3)Gal(b1-4)GlcNAc
# Outline: as §1
# [22] = molecular target: Neu5Ac(a2-3)Gal(b1-4)GlcNAc(b1-3)Gal(b1-4)GlcNAc(b1-2)Man(a1-3)[Neu5Ac(a2-3)Gal(b1-4)GlcNAc(b1-3)Gal(b1-4)GlcNAc(b1-2)Man(a1-6)]Man(b1-4)GlcNAc(b1-4)GlcNAc
# Outline: as §1
# [23] = molecular target: Neu5Ac(a2-3)Gal(b1-4)GlcNAc(b1-3)Gal(b1-4)GlcNAc(b1-3)Gal(b1-4)GlcNAc
# Outline: as §1
# [24] = molecular target: Neu5Ac(a2-3)Gal(b1-4)GlcNAc(b1-3)Gal(b1-4)GlcNAc(b1-3)Gal(b1-4)GlcNAc(b1-2)Man(a1-3)[Neu5Ac(a2-3)Gal(b1-4)GlcNAc(b1-3)Gal(b1-4)GlcNAc(b1-3)Gal(b1-4)GlcNAc(b1-2)Man(a1-6)]GalNAc
# Outline: as §1
# [25] = molecular target: Neu5Ac(a2-3)Gal(b1-4)GlcNAc(b1-3)Gal(b1-4)GlcNAc(b1-3)GalNAc
# Outline: as §1
# [26] = molecular target: Neu5Ac(a2-3)Gal(b1-4)GlcNAc(b1-3)Gal(b1-4)GlcNAc(b1-3)[Neu5Ac(a2-3)Gal(b1-4)GlcNAc(b1-3)Gal(b1-4)GlcNAc(b1-6)]GalNAc
# Outline: as §1
# [27] = molecular target: Neu5Ac(a2-3)Gal(b1-4)GlcNAc(b1-3)Gal(b1-4)GlcNAc(b1-6)[Gal(b1-3)]GalNAc
# Outline: as §1
# [28] = molecular target: Neu5Ac(a2-3)Gal(b1-4)GlcNAc(b1-3)Gal(b1-4)[Fuc(a1-3)]GlcNAc
# Outline: as §1
# [29] = molecular target: Neu5Ac(a2-3)Gal(b1-4)GlcNAc(b1-3)GalNAc
# Outline: as §1
# [30] = molecular target: Neu5Ac(a2-3)Gal(b1-4)GlcNAc(b1-3)[Neu5Ac(a2-3)Gal(b1-4)GlcNAc(b1-6)]GalNAc
# Outline: as §1
# [31] = molecular target: Neu5Ac(a2-3)Gal(b1-4)GlcNAc(b1-6)GalNAc
# Outline: as §1
# [32] = molecular target: Neu5Ac(a2-3)Gal(b1-4)GlcNAc(b1-6)[Gal(b1-3)]GalNAc
# Outline: as §1
# [33] = molecular target: Neu5Ac(a2-3)Gal(b1-4)GlcNAc(b1-6)[Neu5Ac(a2-3)Gal(b1-3)]GalNAc
# Outline: as §1
# [34] = molecular target: Neu5Ac(a2-3)Gal(b1-4)GlcNAc6S
# Outline: as §1
# [35] = molecular target: Neu5Ac(a2-3)Gal(b1-4)[Fuc(a1-3)]GlcNAc
# Outline: as §1
# [36] = molecular target: Neu5Ac(a2-3)Gal(b1-4)[Fuc(a1-3)]GlcNAc(b1-2)Man
# Outline: as §1
# [37] = molecular target: Neu5Ac(a2-3)Gal(b1-4)[Fuc(a1-3)]GlcNAc(b1-3)Gal
# Outline: as §1
# [38] = molecular target: Neu5Ac(a2-3)Gal(b1-4)[Fuc(a1-3)]GlcNAc(b1-3)Gal(b1-4)GlcNAc
# Outline: as §1
# [39] = molecular target: Neu5Ac(a2-3)Gal(b1-4)[Fuc(a1-3)]GlcNAc(b1-3)Gal(b1-4)[Fuc(a1-3)]GlcNAc(b1-3)Gal(b1-4)[Fuc(a1-3)]GlcNAc
# Outline: as §1
# [40] = molecular target: Neu5Ac(a2-3)Gal(b1-4)[Fuc(a1-3)]GlcNAc(b1-3)GalNAc
# Outline: as §1
# [41] = molecular target: Neu5Ac(a2-3)Gal(b1-4)[Fuc(a1-3)]GlcNAc(b1-6)[Gal(b1-3)]GalNAc
# Outline: as §1
# [42] = molecular target: Neu5Ac(a2-3)Gal(b1-4)[Fuc(a1-3)]GlcNAc(b1-6)[Neu5Ac(a2-3)Gal(b1-3)]GalNAc
# Outline: as §1
# [43] = molecular target: Neu5Ac(a2-3)Gal(b1-4)[Fuc(a1-3)]GlcNAc6S
# Outline: as §1
# [44] = molecular target: Neu5Ac(a2-3)Gal6S(b1-4)GlcNAc
# Outline: as §1
# [45] = molecular target: Neu5Ac(a2-3)Gal6S(b1-4)[Fuc(a1-3)]GlcNAc
# Outline: as §1
binder,measurement,setting,value
B1,glycan array binding signal (z-score),[1],-0.461
same,glycan array binding signal (z-score),[2],3.31
same,glycan array binding signal (z-score),[3],3.06
same,glycan array binding signal (z-score),[4],2.81
same,glycan array binding signal (z-score),[5],-0.507
same,glycan array binding signal (z-score),[6],-0.438
same,glycan array binding signal (z-score),[7],-0.227
same,glycan array binding signal (z-score),[8],-0.509
same,glycan array binding signal (z-score),[9],-0.481
same,glycan array binding signal (z-score),[10],-0.513
same,glycan array binding signal (z-score),[11],-0.485
same,glycan array binding signal (z-score),[12],-0.507
same,glycan array binding signal (z-score),[13],-0.505
same,glycan array binding signal (z-score),[14],0.098
same,glycan array binding signal (z-score),[15],-0.234
same,glycan array binding signal (z-score),[16],-0.516
same,glycan array binding signal (z-score),[17],-0.511
same,glycan array binding signal (z-score),[18],-0.504
same,glycan array binding signal (z-score),[19],-0.035
same,glycan array binding signal (z-score),[20],-0.505
same,glycan array binding signal (z-score),[21],-0.51
same,glycan array binding signal (z-score),[22],-0.454
same,glycan array binding signal (z-score),[23],-0.513
same,glycan array binding signal (z-score),[24],-0.236
same,glycan array binding signal (z-score),[25],-0.512
same,glycan array binding signal (z-score),[26],-0.499
same,glycan array binding signal (z-score),[27],-0.51
same,glycan array binding signal (z-score),[28],-0.507
same,glycan array binding signal (z-score),[29],-0.466
same,glycan array binding signal (z-score),[30],-0.516
same,glycan array binding signal (z-score),[31],-0.505
same,glycan array binding signal (z-score),[32],-0.087
same,glycan array binding signal (z-score),[33],-0.5
same,glycan array binding signal (z-score),[34],-0.511
same,glycan array binding signal (z-score),[35],0.582
same,glycan array binding signal (z-score),[36],0.573
same,glycan array binding signal (z-score),[37],1.41
same,glycan array binding signal (z-score),[38],1.28
same,glycan array binding signal (z-score),[39],2.56
same,glycan array binding signal (z-score),[40],-0.303
same,glycan array binding signal (z-score),[41],-0.309
same,glycan array binding signal (z-score),[42],-0.382
same,glycan array binding signal (z-score),[43],0.393
same,glycan array binding signal (z-score),[44],0.253
same,glycan array binding signal (z-score),[45],0.032
